{
  "source": "PubChem BioAssay AID588855",
  "about": "(National Center for Advancing Translational Sciences (NCATS), 2011)",
  "note": "“And” between values parts separate entries of the source, which are not always exact repeats. Equal values may be shown once. In all, about 410,000 compounds went through this assay and about 5,000 (1.2%) were called active. The shares of active, inactive and inconclusive entries below differ from those in the screen. The call rests on the fitted dose curve; in most records, active means well fitted inhibition curve with a large enough effect; inconclusive means small, poorly fitted or top-dose-only effect; inactive means no such curve, though single readings can be large or run the other way. A potency beside an inconclusive call is a rough fit, not a confirmed value. Potency means the concentration at half of the fitted maximal effect; tags describe the fitted curve by direction and shape.",
  "data": [
    {"test": "qHTS for Inhibitors of TGF-b; further: nearly all actives have a fitted effect of over 65% in size", "conditions": "HepG2 CAGA-GFP TGF-b/SMAD3 reporter, GFP fluorescence, 18 h, TGF-beta stimulated, 500 pg/mL final; series mostly up to 46.1 µM", "summary_of_the_method": "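First, reporter cells (HEPG2 CAGA-GFP) rested 2 h at 37 degrees C. Next, compounds were pinned in and TGF-beta added to 500 pg/mL final. After 18 h, GFP was imaged per cell and summed per well.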", "values": [
      {"molecule": "COc1cc(SC)ccc1C(=O)Nc1ncc(Cl)cc1Cl", "Potency": "inactive"},
      {"molecule": "O=C(Cn1nc(C(=O)O)c2ccccc2c1=O)c1c[nH]c2ccccc12", "Potency": "inconclusive: 7.08 µM [inhibitor, full curve, poor fit]"},
      {"molecule": "O=C(CSc1nnc(-c2ccccc2O)o1)N1CCc2ccccc2C1", "Potency": "inconclusive: 15.8 µM [inhibitor, single point]"},
      {"molecule": "COc1ccc(C(CNC(=O)C2CC(=O)N(Cc3ccccc3)C2)N2CCOCC2)cc1", "note": "(stereo unspecified)", "Potency": "inactive"},
      {"molecule": "CCOC(=O)C1CCN(c2nc(-c3ccc(Br)cc3)nc3ccccc23)CC1", "Potency": "inconclusive: 7.94 µM [inhibitor, partial curve]"},
      {"molecule": "CCOc1ccc(CC2S/C(=N/c3ccccn3)NC2=O)cc1", "note": "(stereo unspecified)", "Potency": "inconclusive: 15.8 µM [inhibitor, partial curve, poor fit]"},
      {"molecule": "Cc1ccc(NC(=S)NCc2ccccc2)cc1[N+](=O)[O-]", "Potency": "inconclusive: 35.5 µM [inhibitor, single point]"},
      {"molecule": "CCn1c(SCC(=O)Nc2ccccc2N2CCOCC2)nnc1-c1ccccc1O", "Potency": "inactive"},
      {"molecule": "CCS(=O)(=O)N1CCc2cc(C(=O)Nc3ccc(C)c(Cl)c3)ccc21", "Potency": "inconclusive: 14.1 µM [inhibitor, single point]"},
      {"molecule": "CN(C)c1ccc(-c2n[nH]c(=S)n2-c2ccccc2)cc1", "Potency": "inactive"},
      {"molecule": "CC(C)CN(C(=O)COC(=O)CCSc1ccc(F)cc1)c1c(N)n(Cc2ccccc2)c(=O)[nH]c1=O", "Potency": "inactive"},
      {"molecule": "CCN(CC)CCC(=O)N1c2ccccc2Sc2ccc(NC(=O)OC)cc21", "Potency": "inconclusive: 35.5 µM [inhibitor, single point]"},
      {"molecule": "O=C(N/N=C/c1cc(Cl)ccc1O)c1ccccc1Br", "Potency": "inconclusive: 3.55 µM [inhibitor, full curve]"},
      {"molecule": "CC[C@@H](C(=O)[C@@H](C)[C@@H](O)[C@H](C)CCc1ccc(C)c(O)c1C(=O)O)[C@H]1O[C@](CC)([C@H]2CC[C@](O)(CC)[C@H](C)O2)C[C@@H]1C", "Potency": "active: 10 µM"},
      {"molecule": "CCc1cc2c(cc3c(=O)n(CC(=O)N4CCC(C)CC4)nc(CC)n32)s1", "Potency": "inconclusive: 3.55 µM [inhibitor, single point]"},
      {"molecule": "CCCCCn1c(NCc2ccccc2OC)nc2ccccc21", "Potency": "active: 15.8 µM"},
      {"molecule": "Cc1ccc(C(=O)COC(=O)c2ccc(O)cc2)cc1", "Potency": "inactive"},
      {"molecule": "O=C1CCc2cc(S(=O)(=O)NCc3ccc(F)cc3)cc3c2N1CC3", "Potency": "inactive"},
      {"molecule": "N#Cc1ccccc1C[C@H](N)C(=O)NC[C@H]1O[C@@H](n2cnc3c(N)ncnc32)[C@H](O)[C@@H]1O", "Potency": "inactive"},
      {"molecule": "COC(=O)c1cn[nH]c1NC(=S)Nc1ccccc1C", "Potency": "inactive"},
      {"molecule": "CCC(=O)N1CCc2cc(Br)cc(S(=O)(=O)N3CCCC(C(=O)NCc4cccc(OC)c4)C3)c21", "note": "(stereo unspecified)", "Potency": "inconclusive: 35.5 µM [inhibitor, single point]"},
      {"molecule": "Cc1ccc(NC(=O)C2C3C=CC4(O3)C2C(=O)N(CCCN2CCOCC2)C4C(=O)NC2CCCCC2)cc1Cl", "note": "(stereo unspecified)", "Potency": "inactive"},
      {"molecule": "CCc1ccc2c(c1)C(=O)C[C@]1(CCC[C@H](C)C1)O2", "Potency": "inconclusive: 35.5 µM [inhibitor, single point]"},
      {"molecule": "CCCCCC[N+](C)(C)CC/C=C1/c2ccccc2Sc2ccc(Cl)cc21", "Potency": "inconclusive: 35.5 µM [inhibitor, single point]"},
      {"molecule": "CC(C)(C)OC(=O)NCCCC[C@@H](C(=O)NCCCCCCCCCCC(=O)N1CCN(C(=O)OC(C)(C)C)CC1)n1cc(CCO)nn1", "Potency": "inconclusive: 12.6 µM [inhibitor, single point]"},
      {"molecule": "CCOC(=O)C(=CNNc1c(C)csc1C(=O)OC)C(=O)OCC", "Potency": "inconclusive: 31.6 µM [inhibitor, single point]"},
      {"molecule": "O=C(CSc1ncnc2c1cnn2-c1ccccc1)NC1CCCC1", "Potency": "inconclusive: 15.8 µM [inhibitor, single point]"},
      {"molecule": "Nc1c(C(=O)Nc2ccc(Cl)c(C(F)(F)F)c2)sc2nc(-c3ccncc3)ccc12", "Potency": "inconclusive: 3.16 µM [inhibitor, partial curve, poor fit]"},
      {"molecule": "CCN(CC)S(=O)(=O)c1ccc2c(c1)c(=O)c(C(=O)NCc1ccc(Cl)cc1)cn2C", "Potency": "inconclusive: 2.82 µM [inhibitor, full curve, poor fit]"},
      {"molecule": "Cc1ccnc(NC(=O)c2ccc(Cl)c(S(=O)(=O)N3CCCCC3)c2)c1", "Potency": "inactive"},
      {"molecule": "CCOC(=O)C1CCN(C(=O)c2ccc3c(c2)sc2nc(-c4ccccc4)cn23)CC1", "Potency": "inconclusive: 14.1 µM [inhibitor, partial curve, poor fit]"},
      {"molecule": "CC(=O)c1ccc(S(=O)(=O)N2CCN(c3nn(C)c(=O)n(C)c3=O)CC2)cc1", "Potency": "inactive"},
      {"molecule": "Cc1cc(C)c(C(=O)/C=C/c2ccc(C(C)C)cc2)c(=O)[nH]1", "Potency": "inconclusive: 35.5 µM [inhibitor, single point]"},
      {"molecule": "COC(=O)c1cc2ccccc2oc1=O", "Potency": "inconclusive: 22.4 µM [inhibitor, single point]"},
      {"molecule": "O=[N+]([O-])c1cnn(-c2nc(-c3cccs3)cc(C(F)(F)F)n2)c1", "Potency": "inactive"},
      {"molecule": "Cc1cc(=O)n2nc(N3CCC(C(=O)Nc4ccc(C(C)C)cc4)CC3)sc2n1", "Potency": "inconclusive: 5.01 µM [inhibitor, full curve, poor fit]"},
      {"molecule": "Cc1cccc(NC(=O)c2cccc(C(=O)Nc3cccc(C)n3)c2)n1", "Potency": "inconclusive: 17.8 µM [inhibitor, partial curve, poor fit]"},
      {"molecule": "O=C(N/N=C1\\CCCc2ccccc21)C(O)c1ccccc1", "note": "(stereo unspecified)", "Potency": "inconclusive: 2.51 µM [inhibitor, partial curve]"},
      {"molecule": "Cc1ccc(CCNC(=O)CCn2c(=O)c3cccn3c3ccc(F)cc32)cc1", "Potency": "inconclusive: 22.4 µM [inhibitor, single point] and inconclusive: 28.2 µM [inhibitor, single point]"},
      {"molecule": "COc1ccc(-n2nc3c(N4CCC(C(=O)NCCc5ccco5)CC4)nnc(C)c3c2C)cc1", "Potency": "inconclusive: 7.08 µM [inhibitor, partial curve]"},
      {"molecule": "CC(C)c1cc(-c2cc(C(=O)NCc3ccccc3)on2)nc(NC2CCCC2)n1", "Potency": "inconclusive: 14.1 µM [inhibitor, single point]"},
      {"molecule": "O=C(Nc1ccccc1)N1CCN(C(=O)c2nsc3ccccc23)CC1", "Potency": "inactive"},
      {"molecule": "COC(=O)c1c(C)[nH]c(C(=O)CN2C(=O)C3CC=CCC3C2=O)c1C", "note": "(stereo unspecified)", "Potency": "inactive"},
      {"molecule": "COc1ccccc1C(=O)COC(=O)C(NC(=O)Cc1ccccc1)C(C)C", "note": "(stereo unspecified)", "Potency": "inconclusive: 12.6 µM [inhibitor, partial curve, poor fit]"},
      {"molecule": "Cc1ccc(C(=O)N/C(=C\\c2cccs2)C(=O)N2CCN(C)CC2)cc1C", "Potency": "inactive"},
      {"molecule": "CCN(CC)CC(O)Cn1c(C)c(-c2ccccc2)c2cc([N+](=O)[O-])ccc21", "note": "(stereo unspecified)", "Potency": "inconclusive: 35.5 µM [inhibitor, single point]"},
      {"molecule": "Cc1cccc(Cl)c1OCCCn1ccnc1", "Potency": "inconclusive: 35.5 µM [inhibitor, partial curve, poor fit]"},
      {"molecule": "O=C(Nc1ccc(F)cc1)c1ccc(Br)c(S(=O)(=O)N2CCOCC2)c1", "Potency": "inconclusive: 11.2 µM [inhibitor, single point]"},
      {"molecule": "CC1(C)COC(Cc2ccccc2)=N1", "Potency": "inactive"},
      {"molecule": "COc1ccccc1CN1CCC(n2nccc2NC(=O)CCc2ccccc2)CC1", "Potency": "inactive"},
      {"molecule": "O=S(=O)(/C=C/c1ccccc1)NC1CCCCCC1", "Potency": "inconclusive: 35.5 µM [inhibitor, single point]"},
      {"molecule": "C[C@@H]1CN([C@H](C)CO)C(=O)CCCn2cc(nn2)CO[C@H]1CN(C)S(=O)(=O)c1ccc(C#N)cc1", "Potency": "inactive"},
      {"molecule": "C/C(=N\\Nc1nc2ccccc2s1)c1ccc2c(c1)OCO2", "Potency": "inconclusive: 17.8 µM [inhibitor, single point]"},
      {"molecule": "COc1ccc(CC(N)c2csc(NC(=O)c3cc(C(C)(C)C)oc3C)n2)cc1", "note": "(stereo unspecified)", "Potency": "inconclusive: 35.5 µM [inhibitor, single point]"},
      {"molecule": "COc1ccccc1OCCCn1c(C2CC(=O)N(c3ccccc3Cl)C2)nc2ccccc21", "note": "(stereo unspecified)", "Potency": "inconclusive: 11.2 µM [inhibitor, partial curve, poor fit]"},
      {"molecule": "COc1ccc(-c2sc3cc(OC)c(OC)cc3c2C#CCCO)cc1", "Potency": "inconclusive: 35.5 µM [inhibitor, single point]"},
      {"molecule": "COc1ccccc1C(=O)N1CCN(c2cccc(Cl)c2)CC1", "Potency": "inconclusive: 5.62 µM [inhibitor, full curve, poor fit]"},
      {"molecule": "S=C(NCCCc1ccccc1)Nc1ccc(Br)cc1", "Potency": "inconclusive: 28.2 µM [inhibitor, single point]"},
      {"molecule": "C[C@H](CO)N1C[C@H](C)[C@@H](CN(C)Cc2cccc3c2OCCCO3)OCc2cnnn2CCCC1=O", "Potency": "inactive"},
      {"molecule": "Cc1nc(-c2ccc(Cl)cc2)sc1CCNC(=O)c1ccco1", "Potency": "inconclusive: 17.8 µM [inhibitor, single point]"},
      {"molecule": "CSc1ncc(CN2CCC(C(=O)Nc3cccc(-c4cscn4)c3)CC2)cn1", "Potency": "inconclusive: 35.5 µM [inhibitor, single point]"},
      {"molecule": "O=C(CSc1nnc(-c2ccco2)n1Cc1ccccc1)OC1CCCCC1", "Potency": "inconclusive: 35.5 µM [inhibitor, single point]"},
      {"molecule": "CCc1ccc2[nH]c(=O)c(CN(Cc3nnnn3C3CCCC3)C3CCCCC3)cc2c1", "Potency": "inconclusive: 22.4 µM [inhibitor, single point]"},
      {"molecule": "CSCCC(NC(=O)c1ccco1)C(=O)Nc1ccncc1", "note": "(stereo unspecified)", "Potency": "inactive"},
      {"molecule": "CCOC(=O)C(=Cc1ccc(OCc2ccc([N+](=O)[O-])cc2)c(OC)c1)C(=O)OCC", "Potency": "inconclusive: 35.5 µM [inhibitor, partial curve, poor fit]"},
      {"molecule": "Cc1ccc(C(=O)Nc2cccc(C(F)(F)F)c2)cc1NC(=O)c1c[nH]c2cc(C(F)(F)F)ccc2c1=O", "Potency": "inactive"}
    ]}
  ]
}
